# Test results published in patent US5432018A, “Peptide library and screening systems” (Affymax Technologies N.V., priority 1991, dated 1995).
# At least one peptide structure holds a part that was inferred or is arguable (an end, a ring closure or a residue). Where a SMILES comes first, the peptide text is derived from it. Where no end group is shown, it is not given here.
# Target: 3E7 antibody
# Experiment: Solution radioimmunoassay: inhibition of [125I]b-endorphin binding to mAb 3E7 (solution competition assay)
# Design: species or system mouse
# Conditions: chemically synthesized free peptide; solution competition assay; low tracer, <20% bound, 18 hr incubation; read-out: Equilibrium IC50
row,Compound,IC50 [nM]
1,YGAFFK [YGAFFK],59 ± 22
2,YGAFMQ [YGAFMQ],13 ± 4.9
3,YGAWYT [YGAWYT],1600 ± 300
4,YGGFGF [YGGFGF],65 ± 18
5,YGTFLN [YGTFLN],470 ± 140
6,YGAFQG [YGAFQG],27 ± 2

# Same assay, conditions: from the IC50 in the solution radioimmunoassay
row,Compound,Affinity Relative to YGGFL
1,YGPFWS [YGPFWS],0.0037
2,YGGWAG [YGGWAG],0.00091
3,YGNWTY [YGNWTY],0.00091
4,YAGFAQ [YAGFAQ],0.00086
5,YGGFPD [YGGFPD],0.0031
6,YGFWGM [YGFWGM],0.020
7,"N[C@@H](Cc1ccc(O)cc1)C(=O)NCC(=O)NCC(=O)N[C@@H](Cc1ccccc1)C(=O)O [YGGF, Tyr-Gly-Gly-Phe, reference compound] (H-YGGF-OH)",0.037

# Same assay, conditions: peptides borne by library phage clones used to calibrate the dissociation assay; read-out: known affinity of peptide (assay calibration)
row,Compound,Kd [nM]
1,YGFWGM [YGFWGM],350

# Same assay, conditions: solution radioimmunoassay; 30 pM [125I]b-endorphin; 20% tracer bound; 18 hr incubation; geometric means of N determinations; read-out: IC50
row,Compound,IC50 [nM]
1,"N[C@@H](Cc1ccc(O)cc1)C(=O)NCC(=O)NCC(=O)N[C@@H](Cc1ccccc1)C(=O)O [YGGF, Tyr-Gly-Gly-Phe, reference compound] (H-YGGF-OH)",190
